Measurements published in patent publication US20230143604A1, “QW DOSING OF GIP RECEPTOR AGONIST PEPTIDE COMPOUNDS AND USES THEREOF” (TAKEDA PHARMACEUTICAL COMPANY LIMITED, priority 2020, published 2023).
Where two headings read alike, the source gives them in different places. Not every detail of the peptide structures is certain; ends, links or a residue may be inferred. Starred links: 1 amine or outer side, 2 acyl side, 3 side chain; linkers in the order of their positions; H or OH if unused. Non-standard residues stand in square brackets, D forms with d. Residues, ends and D or L forms follow the SMILES beside them. Groups on a side chain read outwards from the residue. *: point of attachment. C18 diacid = O=C(O)CCCCCCCCCCCCCCCCC(=O)*; C17 diacid = O=C(O)CCCCCCCCCCCCCCCC(=O)*; γGlu = O=C(O)[C@H](CCC(=O)[*:2])N[*:1]; NMeY = CN[C@@H](Cc1ccc(O)cc1)C(=O)O; AEEA = NCCOCCOCC(=O)O; Aib = CC(C)(N)C(=O)O

Target: T1, human GLP-1R (Homo sapiens, UniProt P43220)
T1 construct: HEK-293T cells overexpressing full-length human GLP-1R; FLAG (N); host or cells: HEK-293T
Experiment: Human GLP1R agonist activity, intracellular cAMP accumulation
Assay type: cell-based
Description: Cells are cultured per the manufacturer's protocol in DMEM with 10% fetal bovine serum and 1 μg/mL puromycin and stored in frozen aliquots to be used as assay ready cells. On the day of the assay, cells are removed from frozen storage, washed two times in 1× Kreb's Ringer Buffer (Zenbio, Research Triangle Park, N.C.), and re-suspended to a concentration of 4×10^5 cells/mL in 1× Kreb's Ringer Buffer. […] Cells are incubated with test compound for 1 hr at room temperature in the dark, and cAMP accumulation is measured using the Cisbio HiRange cAMP assay kit (Bedford, Mass.) per the manufacturer's protocol. Anti-cAMP antibody and d2-cAMP tracer reagents diluted in lysis/detection buffer are incubated in the dark for 1 hr, and results are measured on an Envision plate reader (Perkin Elmer, Waltham, Mass.). Data is normalized using 1 nm GLP-1 as 100% activity, and DMSO alone as 0% activity.

[1] = HEK-293T cells overexpressing human GLP-1R, 1 hr, read-out: Human GLP1R cAMP EC50, HEK293T

T1 sequence (P43220 24-463): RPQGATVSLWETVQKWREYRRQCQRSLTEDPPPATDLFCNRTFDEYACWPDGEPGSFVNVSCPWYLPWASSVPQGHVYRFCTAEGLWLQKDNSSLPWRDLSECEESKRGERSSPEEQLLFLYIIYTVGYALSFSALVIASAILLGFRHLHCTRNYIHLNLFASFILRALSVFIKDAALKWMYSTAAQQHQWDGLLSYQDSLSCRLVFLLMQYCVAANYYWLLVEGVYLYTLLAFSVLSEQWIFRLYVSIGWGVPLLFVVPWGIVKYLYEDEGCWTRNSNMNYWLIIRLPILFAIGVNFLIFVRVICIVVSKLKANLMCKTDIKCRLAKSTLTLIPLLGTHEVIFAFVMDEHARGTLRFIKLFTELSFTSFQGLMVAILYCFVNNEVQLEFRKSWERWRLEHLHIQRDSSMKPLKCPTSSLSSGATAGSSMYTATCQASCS

Row | SMILES | EC50 [1] | EC50 (read-out: Human GLP1R cAMP EC50, HEK293T, HEK-293T cells overexpressing human GLP-1R, 1 hr)
1 | CC[C@H](C)[C@H](NC(=O)[C@H](Cc1ccccc1)NC(=O)[C@@H](NC(=O)CNC(=O)[C@H](CCC(=O)O)NC(=O)C(C)(C)NC(=O)[C@H](Cc1ccc(O)cc1)NC)[C@@H](C)O)C(=O)N[C@@H](CO)C(=O)N[C@@H](CC(=O)O)C(=O)N[C@@H](Cc1ccc(O)cc1)C(=O)N[C@@H](CO)C(=O)N[C@H](C(=O)NC(C)(C)C(=O)N[C@@H](CC(C)C)C(=O)N[C@@H](CC(=O)O)C(=O)N[C@@H](CCCNC(=N)N)C(=O)NC(C)(C)C(=O)N[C@@H](Cc1c[nH]cn1)C(=O)N[C@@H](CCC(N)=O)C(=O)NC(C)(C)C(=O)N[C@@H](CCCCNC(=O)COCCOCCNC(=O)COCCOCCNC(=O)CC[C@H](NC(=O)CC[C@H](NC(=O)CCCCCCCCCCCCCCCCC(=O)O)C(=O)O)C(=O)O)C(=O)N[C@@H](Cc1ccccc1)C(=O)N[C@H](C(=O)N[C@@H](CC(N)=O)C(=O)N[C@@H](Cc1c[nH]c2ccccc12)C(=O)N[C@@H](CC(C)C)C(=O)N[C@@H](CC(C)C)C(=O)N[C@@H](C)C(=O)N[C@@H](CCC(N)=O)C(=O)N[C@@H](CCCNC(=N)N)C(=O)NCC(=O)O)C(C)C)[C@@H](C)CC [Compound 201] (H-[NMeY][Aib]EGTFISDYSI[Aib]LDR[Aib]HQ[Aib]K([AEEA-AEEA-γGlu-γGlu-C18 diacid])FVNWLLAQRG-OH) | 61.7 nM | –
2 | CC[C@H](C)[C@H](NC(=O)[C@H](CO)NC(=O)[C@H](Cc1ccc(O)cc1)NC(=O)[C@H](CC(=O)O)NC(=O)[C@H](CO)NC(=O)[C@@H](NC(=O)[C@H](Cc1ccccc1)NC(=O)[C@@H](NC(=O)CNC(=O)[C@H](CCC(=O)O)NC(=O)C(C)(C)NC(=O)[C@H](Cc1ccc(O)cc1)NC)[C@@H](C)O)[C@@H](C)CC)C(=O)N[C@@H](C)C(=O)N[C@@H](CCCCNC(=O)COCCOCCNC(=O)COCCOCCNC(=O)CC[C@H](NC(=O)CC[C@H](NC(=O)CCCCCCCCCCCCCCCC(=O)O)C(=O)O)C(=O)O)C(=O)N[C@@H](CC(=O)O)C(=O)N[C@@H](CCCNC(=N)N)C(=O)NC(C)(C)C(=O)N[C@@H](C)C(=O)N[C@@H](CCC(N)=O)C(=O)NC(C)(C)C(=O)N[C@@H](CC(N)=O)C(=O)N[C@@H](Cc1ccccc1)C(=O)N[C@H](C(=O)N[C@@H](CC(N)=O)C(=O)N[C@@H](Cc1c[nH]c2ccccc12)C(=O)N[C@@H](CC(C)C)C(=O)N[C@@H](CC(C)C)C(=O)N[C@@H](C)C(=O)N[C@@H](CCC(N)=O)C(=O)N[C@@H](CO)C(=O)O)C(C)C [Compound 192] (H-[NMeY][Aib]EGTFISDYSIAK([AEEA-AEEA-γGlu-γGlu-C17 diacid])DR[Aib]AQ[Aib]NFVNWLLAQS-OH) | 178 nM | –
3 | CC[C@H](C)[C@H](NC(=O)[C@H](CO)NC(=O)[C@H](Cc1ccc(O)cc1)NC(=O)[C@H](CC(=O)O)NC(=O)[C@H](CO)NC(=O)[C@@H](NC(=O)[C@H](Cc1ccccc1)NC(=O)[C@@H](NC(=O)CNC(=O)[C@H](CCC(=O)O)NC(=O)C(C)(C)NC(=O)[C@H](Cc1ccc(O)cc1)NC)[C@@H](C)O)[C@@H](C)CC)C(=O)N[C@@H](C)C(=O)N[C@@H](CCCCNC(=O)COCCOCCNC(=O)COCCOCCNC(=O)CC[C@H](NC(=O)CCCCCCCCCCCCCCCCC(=O)O)C(=O)O)C(=O)N[C@@H](CC(=O)O)C(=O)N[C@@H](CCCNC(=N)N)C(=O)N[C@H](C(=O)N[C@@H](Cc1c[nH]cn1)C(=O)N[C@@H](CCC(N)=O)C(=O)N[C@@H](CCC(N)=O)C(=O)N[C@@H](CC(N)=O)C(=O)N[C@@H](Cc1ccccc1)C(=O)N[C@H](C(=O)N[C@@H](CC(N)=O)C(=O)N[C@@H](Cc1c[nH]c2ccccc12)C(=O)N[C@@H](CC(C)C)C(=O)N[C@@H](CC(C)C)C(=O)N[C@@H](C)C(=O)N[C@@H](CCC(N)=O)C(=O)N[C@@H](CCCNC(=N)N)C(=O)N1CCC[C@H]1C(=O)N[C@@H](CO)C(=O)N[C@@H](CO)C(=O)NCC(=O)N[C@@H](C)C(=O)N1CCC[C@H]1C(=O)N1CCC[C@H]1C(=O)N1CCC[C@H]1C(=O)N[C@@H](CO)C(N)=O)C(C)C)[C@@H](C)CC [Compound 3] (H-[NMeY][Aib]EGTFISDYSIAK([AEEA-AEEA-γGlu-C18 diacid])DRIHQQNFVNWLLAQRPSSGAPPPS-NH2) | – | 10.5 nM
4 | CC[C@H](C)[C@H](NC(=O)[C@H](CO)NC(=O)[C@H](Cc1ccc(O)cc1)NC(=O)[C@H](CC(=O)O)NC(=O)[C@H](CO)NC(=O)[C@@H](NC(=O)[C@H](Cc1ccccc1)NC(=O)[C@@H](NC(=O)CNC(=O)[C@H](CCC(=O)O)NC(=O)C(C)(C)NC(=O)[C@@H](N)Cc1ccc(O)cc1)[C@@H](C)O)[C@@H](C)CC)C(=O)N[C@@H](C)C(=O)N[C@@H](CC(C)C)C(=O)N[C@@H](CC(=O)O)C(=O)N[C@@H](CCCCN)C(=O)N[C@@H](C)C(=O)N[C@@H](C)C(=O)N[C@@H](CCC(N)=O)C(=O)NC(C)(C)C(=O)N[C@@H](CCCCNC(=O)COCCOCCNC(=O)COCCOCCNC(=O)CC[C@H](NC(=O)CC[C@H](NC(=O)CCCCCCCCCCCCCCCC(=O)O)C(=O)O)C(=O)O)C(=O)N[C@@H](Cc1ccccc1)C(=O)N[C@H](C(=O)N[C@@H](CCC(=O)O)C(=O)N[C@@H](Cc1c[nH]c2ccccc12)C(=O)N[C@@H](CC(C)C)C(=O)N[C@@H](CC(C)C)C(=O)N[C@@H](C)C(=O)N[C@@H](CCC(N)=O)C(=O)N[C@@H](CCCNC(=N)N)C(=O)NCC(=O)O)C(C)C [Compound 133] (H-Y[Aib]EGTFISDYSIALDKAAQ[Aib]K([AEEA-AEEA-γGlu-γGlu-C17 diacid])FVEWLLAQRG-OH) | 58.9 nM | –
5 | CC[C@H](C)[C@H](NC(=O)[C@H](Cc1ccccc1)NC(=O)[C@@H](NC(=O)CNC(=O)[C@H](CCC(=O)O)NC(=O)[C@H](C)NC(=O)[C@H](Cc1ccc(O)cc1)NC)[C@@H](C)O)C(=O)N[C@@H](CO)C(=O)N[C@@H](CC(=O)O)C(=O)N[C@@H](Cc1ccc(O)cc1)C(=O)N[C@@H](CO)C(=O)N[C@H](C(=O)NC(C)(C)C(=O)N[C@@H](CC(C)C)C(=O)N[C@@H](CC(=O)O)C(=O)N[C@@H](CCCNC(=N)N)C(=O)NC(C)(C)C(=O)N[C@@H](C)C(=O)N[C@@H](CCC(N)=O)C(=O)NC(C)(C)C(=O)N[C@@H](CCCCNC(=O)COCCOCCNC(=O)COCCOCCNC(=O)CC[C@H](NC(=O)CC[C@H](NC(=O)CCCCCCCCCCCCCCCCC(=O)O)C(=O)O)C(=O)O)C(=O)N[C@@H](Cc1ccccc1)C(=O)N[C@H](C(=O)N[C@@H](CC(N)=O)C(=O)N[C@@H](Cc1c[nH]c2ccccc12)C(=O)N[C@@H](CC(C)C)C(=O)N[C@@H](CC(C)C)C(=O)N[C@@H](C)C(=O)N[C@@H](CCC(N)=O)C(=O)N[C@@H](CCCNC(=N)N)C(=O)NCC(=O)O)C(C)C)[C@@H](C)CC [Compound 218] (H-[NMeY]AEGTFISDYSI[Aib]LDR[Aib]AQ[Aib]K([AEEA-AEEA-γGlu-γGlu-C18 diacid])FVNWLLAQRG-OH) | 38 nM | –
